Measurements as given in the antibiotic and cytotoxicity screens of Wong et al. (2023).
Some of the results follow.

Legend:
[1] = test system: HSkMC (human skeletal muscle cells); experiment: cytotoxicity call (relative viability < 0.9); settings: 10 µM
[2] = test system: HepG2; experiment: cytotoxicity call (relative viability < 0.9); settings: 10 µM
[3] = test system: S. aureus RN4220; experiment: growth inhibition call (relative growth <= 0.2); settings: 50 µM

| Structure (SMILES) | cytotoxicity call [1] | cytotoxicity call [2] | growth inhibition call [3] |
| --- | --- | --- | --- |
| COc1ccc(S(=O)(=O)Nc2ccc3c(c2)CC(=O)N([C@@H](C)CO)C[C@@H](C)[C@H](CN(C)Cc2ccc(Oc4ccccc4)cc2)O3)cc1 | inactive | inactive | inactive |
| O=C(C[C@@H]1CC=CC[C@@H](NC(=O)OCC2c3ccccc3-c3ccccc32)C(=O)OC[C@@H](Cc2c[nH]c3ccccc23)NC1=O)N[C@H](CO)Cc1ccccc1 | inactive | inactive | inactive |
| CCC(=O)OCN1C(=O)C=CC1=O | inactive | inactive | inactive |
| CO[C@@H]1CN(C)C(=O)c2ccc(NC(=O)C3CC3)cc2OC[C@H](C)N(C(=O)C2CCOCC2)C[C@H]1C | inactive | inactive | inactive |
| COc1ccccc1C#Cc1cnc2c(c1)C(=O)N([C@@H](C)CO)C[C@H](C)[C@H](CN(C)C(=O)CC1CC1)O2 | inactive | inactive | inactive |
| O=c1c(O[C@@H]2O[C@H](CO)[C@H](O)[C@H](O)[C@H]2O)c(-c2ccc(O)c(O)c2)oc2cc(O)cc(O)c12 | inactive | inactive | inactive |
| OCC1OC(O)(CO)C(O)C1O (stereo not drawn) | inactive | inactive | inactive |
| COc1ccc(S(=O)(=O)Nc2cccc3c2O[C@H](CN(C)S(=O)(=O)c2ccc(F)cc2)[C@@H](C)CN([C@H](C)CO)C3=O)cc1 | inactive | inactive | inactive |
| CN1C(C)(C)CCCC1(C)C | inactive | inactive | inactive |
| COCCOC(=O)N1C(=O)[C@@]2(c3cc(C#CCNC(N)=O)ccc31)[C@H](C(=O)N1CCc3cc(OC)c(OC)cc3C1)[C@H]1C(=O)O[C@H](c3ccccc3)[C@H](c3ccccc3)N1[C@@H]2c1ccc(OCCO)cc1 | inactive | inactive | inactive |
| C[C@H](CO)N1C[C@H](C)[C@H](CN(C)C(=O)NC2CCCCC2)OCCCC[C@H](C)Oc2ccc(NC(=O)c3ccccc3)cc2C1=O | inactive | inactive | inactive |
| C[C@H]1CN([C@@H](C)CO)C(=O)CCCn2cc(nn2)CO[C@H]1CN(C)C(=O)Nc1ccnc(N2CCOCC2)c1 | inactive | inactive | inactive |
| COc1ccc(NC(=O)N(C)C[C@@H]2OCCCC[C@@H](C)Oc3ccc(NC(=O)c4ccncc4)cc3C(=O)N([C@H](C)CO)C[C@@H]2C)cc1 | inactive | inactive | inactive |
| Cc1cc(C(=O)Nc2cccc3c2O[C@@H](CN(C)Cc2ccc(Oc4ccccc4)cc2)[C@H](C)CN([C@H](C)CO)C3=O)n(C)n1 | inactive | inactive | inactive |
| COc1ccccc1-c1ccc2c(c1)O[C@H](CN(C)CC1CCOCC1)[C@H](C)CN([C@H](C)CO)S2(=O)=O | inactive | inactive | inactive |
| O=C(O)c1cc2sccc2s1 | inactive | inactive | inactive |
| C[C@H]1CN([C@@H](C)CO)C(=O)c2c(c3ccccc3n2C)-c2ccccc2CO[C@@H]1CN(C)S(=O)(=O)c1ccc(Cl)cc1 | inactive | active | inactive |
| Cc1ccc(S(=O)(=O)Nc2ccc3c(c2)C(=O)N([C@@H](C)CO)C[C@@H](C)[C@@H](CN(C)C(=O)Nc2ccc4c(c2)OCO4)OCCCC[C@@H](C)O3)cc1 | inactive | inactive | inactive |
| Cc1cc(C(=O)Nc2cccc3c2O[C@H](CN(C)S(C)(=O)=O)[C@@H](C)CN([C@@H](C)CO)C3=O)n(C)n1 | inactive | inactive | inactive |
| C=C(C)c1c2c(c(Cl)c3ccccc13)C[N+](CC)(CC)C2 | inactive | inactive | inactive |
| O=C(O)c1cn(C2CC2)c2cc(N3CCC(O)(COc4ccc(N5C[C@H](CO)OC5=O)cc4F)CC3)c(F)cc2c1=O | inactive | inactive | inactive |
| CN1CCN(CCO)CC1 | inactive | inactive | inactive |
| COc1ccc(NC(=O)Nc2ccc3c(c2)C(=O)N([C@@H](C)CO)C[C@H](C)[C@@H](CN(C)S(=O)(=O)c2ccc(C)cc2)OCCCC[C@H](C)O3)cc1 | inactive | inactive | inactive |
| C[C@H]1CN([C@@H](C)CO)C(=O)c2cc(NC(=O)Nc3ccc4c(c3)OCO4)ccc2O[C@H]1CN(C)S(=O)(=O)c1cn(C)cn1 | inactive | inactive | inactive |
| Cc1noc(C)c1NC(=O)Nc1ccc2c(c1)C(=O)N([C@@H](C)CO)C[C@@H](C)[C@H](CN(C)S(=O)(=O)c1ccc(Cl)cc1)OCCCC[C@@H](C)O2 | inactive | inactive | inactive |
| CC(C)(Sc1cc(C(C)(C)C)c(O)c(C(C)(C)C)c1)Sc1cc(C(C)(C)C)c(OCC(=O)O)c(C(C)(C)C)c1 | active | inactive | active |
